Measured values as given in PubChem BioAssay AID493208 (National Center for Advancing Translational Sciences (NCATS), 2011).
The campaign covered roughly 44,000 compounds. About 340 (0.77%) were called active. Roughly 5% stayed inconclusive and do not appear here. The call rests on the fitted dose curve; in most records, active means well fitted inhibition curve with a large enough effect; inconclusive means small, poorly fitted or top-dose-only effect; inactive means flat fitted curve, though single readings scatter. This is one part of the list.

Test: Acumen qHTS Assay for Inhibitors of the mTORC1 Signaling Pathway in MEF (Tsc2-/-, p53-/-) Cells: Sytravon;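 further: plate controls were DMSO for no effect and rapamycin for full effect; nearly all actives have a fitted effect of over 50% in size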
Settings: phospho-rpS6 immunofluorescence/PI, 24 h; series mostly up to 38.3 µM; activity change, negative = inhibition: at the top concentration
Method in brief: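 Plate MEFs (Tsc2-/-, p53-/-, empty vector) in DMEM/10% FBS; after 24 h add compound, incubate 24 h at 37 degree Celsius; fix in PFA/TX-100, block, stain phospho-rpS6 and 10 uM PI; scan at 488 nm; report % positive cells.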
In the case of `COc1cc(C(CC(=O)Nc2cc(C)ccc2C)N2Cc3ccccc3C2=O)cc(OC)c1OC` (stereo unspecified), the “activity change, negative = inhibition” value is reported as inactive: -10.7%.
For `CC(C)(C)OC(=O)N1CCC(c2c(C(=O)N3CCN(c4ccccn4)CC3)cnn2-c2ccccc2Cl)CC1`, the “activity change, negative = inhibition” value was inactive: -6.19%.
For `CC(=O)c1ccc(NC(c2ccc(F)cc2)c2nnc(-c3ccccc3)o2)cc1` (stereo unspecified), the “activity change, negative = inhibition” value was inactive: -20.5%.
For `Cc1ccc2nc(-c3ccncc3)c(Nc3ccc(C(C)C)cc3)n2c1`, the “activity change, negative = inhibition” value was inactive: 0.985%.
In the case of `CCOC(=O)c1[nH]c(C)c(CCC(=O)N2CCN(c3cccc(C)c3C)CC2)c1C`, the “activity change, negative = inhibition” value is reported as inactive: 0%.
In the case of `CCOCCCNC(=O)c1cn(CC)c2ccc(S(=O)(=O)N3CCc4ccccc4C3)cc2c1=O`, the “activity change, negative = inhibition” value is reported as inactive: 0.725%.
With `Cc1ccc(CSc2nc(-c3ccc(C(C)(C)C)cc3)nc3cc(=O)[nH]n23)cc1` the “activity change, negative = inhibition” value was inactive: 2.32%.
For `CCc1ccc(Nc2sc(C(=O)c3ccccc3)c(N)c2S(C)(=O)=O)cc1`, the “activity change, negative = inhibition” value was inactive: 0.673%.
With `CCOCCc1nn2c(=O)cc(COC(=O)CNC(=O)c3ccc(F)cc3)nc2s1` the “activity change, negative = inhibition” value was inactive: 0.0824%.
With `COc1ccc(-c2cn3c(n2)sc2cc(C(=O)Nc4ccc(F)cc4Cl)ccc23)cc1` the “activity change, negative = inhibition” value was inactive: -7.95%.
In the case of `COc1ccc(-n2ccn(CC(=O)Nc3ccc(C)c(C)c3)c(=O)c2=O)cc1OC`, the “activity change, negative = inhibition” value is reported as inactive: 9.34%.
For `CCOc1cc2[nH]c(=O)n(CCCC(=O)NCc3ccc(OC)cc3)c(=O)c2cc1OCC`, the “activity change, negative = inhibition” value was inactive: -0.483%.
In the case of `CC(C)CCNC(=O)c1nn(C)c2c1CSc1ccccc1-2`, the “activity change, negative = inhibition” value is reported as inactive: -1.75%.
For `COC(=O)c1c(-c2cccs2)csc1NC(=O)c1cc(OC)c(OC)c(OC)c1`, the “activity change, negative = inhibition” value was inactive: 0%.
In the case of `CC1CCCN(S(=O)(=O)c2cc(C(=O)NCc3ccccc3Cl)n(C)c2)C1` (stereo unspecified), the “activity change, negative = inhibition” value is reported as inactive: -9.52%.
For `Cc1ccc(F)cc1NC(=O)CCSc1nc(-c2ccco2)cc(C(F)(F)F)n1`, the “activity change, negative = inhibition” value was inactive: -21.4%.
With `Cc1ccc(NC(=O)C(=O)NCC(c2cccnc2)N2CCc3ccccc3C2)cc1` (stereo unspecified) the “activity change, negative = inhibition” value was inactive: 3.57%.
For `CCN(C(=O)c1cc2cc(Br)cc(OC)c2oc1=O)c1ccccc1`, the “activity change, negative = inhibition” value was inactive: 2.79%.
With `COc1cccc(C2c3c(-c4ccccc4O)n[nH]c3C(=O)N2Cc2cccnc2)c1` (stereo unspecified) the “activity change, negative = inhibition” value was inactive: 1.52%.
In the case of `O=S(=O)(Nc1ccc(-c2ccc(N3CCCC3)nn2)cc1)c1ccc(OC(F)(F)F)cc1`, the “activity change, negative = inhibition” value is reported as inactive: 0.582%.
With `O=C(NC1CCCCCC1)c1ccc(CS(=O)c2ccc(Br)cc2)o1` (stereo unspecified) the “activity change, negative = inhibition” value was inactive: -7.85%.
For `CCc1ccccc1NC(=O)Cn1c(=O)n(-c2ccc(C)c(C)c2)c(=O)c2oc3ccccc3c21`, the “activity change, negative = inhibition” value was inactive: -3.92%.
For `Cc1ccc(NC(=O)CSCc2cnn(-c3ccccc3)c2-n2cccc2)c(Cl)c1`, the “activity change, negative = inhibition” value was inactive: -0.0334%.
For `COc1ccc(CCNc2nc3ccccc3c3nc(-c4cccc(C)c4)nn23)cc1OC`, the “activity change, negative = inhibition” value was inactive: 1.35%.
With `COc1ccc(S(=O)(=O)NCCc2sc(-c3cccc(C)c3)nc2C)cc1` the “activity change, negative = inhibition” value was inactive: -7.63%.
In the case of `Cc1ccc(CCNC(=O)c2cccc(Nc3nc4ccccc4nc3-n3nc(C)cc3C)c2)cc1`, the “activity change, negative = inhibition” value is reported as inactive: 0.385%.
